According to the supplement of paper PMC10126150:
Sequences with one replicate were seen in a single cluster, so their values are uncertain.

Tested on: ATP
Experiment: switch fluorescence ratio, 500 uM ATP over buffer (Cy3 cluster intensity, sum of 5 cycles each) (fold (ratio)); higher = stronger signal-on switching upon ATP binding; sequences stand for … in TCGTCGGCAGCGTCAGATGTGTATAAGAGACAGTTTTTTTTTTTTTTTTTTTTTTTTT…TC
Conditions: aptamer strand: ATP DNA aptamer (quencher-CACCTGGGGGAGTATTGCGGAGGAAGG + anchor), 100 nM annealed; ATP concentration: 500 uM; one replicate
Outline: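 The quencher-labelled ATP aptamer, at 100 nM, was annealed to Cy3-labelled switching-strand clusters on a modified Illumina MiSeq flow-cell. The clusters were imaged in selection buffer, then after 15 min with 500 uM ATP at 22 °C, and this buffer/ATP cycle ran five times with NaOH stripping and re-annealing between runs. Per-cluster fluorescence ratios, summed target-cycle over summed buffer-cycle Cy3 intensity, were averaged per switch-domain sequence. Clusters outside 100-1000 RFU were excluded.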
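Also: ATP exposure 15 min at 22 °C before imaging.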

Row | Sequence | switch fluorescence ratio
1 | GGTTTCAATT | 0.989
2 | GCGGGTTAGG | 0.997
3 | AGGACCGT | 1.01
4 | AACGGCCTGA | 1.03
5 | AGCTGACAA | 1.01
6 | CTAGGCCGTT | 0.999
7 | GTGCTTTAAA | 0.961
8 | GTCGCCGCCG | 1.04
9 | CGAGGACGCG | 1
10 | GGTTTTCCTT | 1.04
11 | AAGAGTTTAC | 0.968
12 | AACGGGTAGG | 0.961
13 | ACTAGCGGGG | 0.957
14 | AGCTGTGGC | 1.03
15 | GCCAGCGTTT | 1.01
16 | TACTAAGTTA | 1.02
17 | TGACATTGAT | 0.985
18 | AAAGACCAG | 1.01
19 | TTTCGTTCCT | 1.09
20 | GTGGATGGCA | 1.12
21 | TTTCGTCCCC | 1.05
22 | TCGTATTTAA | 1.02
23 | AAGGAGAAGG | 1.08
24 | AACTTAAGTA | 1.07
25 | TTTTTGAACA | 1.01
26 | GCGACAAGA | 1.44

Row | Sequence | switch fluorescence ratio
27 | ACATGAGTGA | 1.01
28 | CACTGTACCT | 1.55
29 | CGATTAAGTT | 0.999
30 | TAACCAGGGA | 1
31 | CGCAAAAAAT | 1.08
32 | TGCAAGAGGA | 1.07
33 | GGGGCTCTCA | 1.02
34 | AATGAAGTCA | 1
35 | CGTGGAG | 1
36 | CGGAAGTGTT | 0.98
37 | ACTATTAGGT | 1.03
38 | AAGTTTTAAC | 0.994
39 | CGGCTCCACA | 1.18
40 | GATGGTGAAC | 0.974
41 | ACCGAGAGAC | 1.5
42 | TCCTGATGC | 1.14
43 | GTTTAAGGTG | 1.15
44 | TTCTTTTCTG | 1.02
45 | CTGTTATGAT | 1
46 | TTGTGTTTC | 1.05
47 | TAACGAGCCC | 1.08
48 | GACTACGT | 0.992
49 | CTGCCTGCAG | 1.01
50 | AGCTGACCGC | 1.04
51 | CATTTGTCAT | 1.01
52 | TTCTAACCAT | 1.02

Row | Sequence | switch fluorescence ratio
53 | TGATTGATGC | 1
54 | GGGGATCATG | 1.03
55 | GCAAGCATTA | 1.14
56 | CTTTGACAGT | 0.979
57 | GTGCACTGGT | 0.967
58 | GGCGCCGCTA | 0.985
59 | TATGACTTAG | 1.07
60 | GAAGCAGCCA | 1.1
61 | GGTCCATGTC | 0.926
62 | TGTTGACGAT | 1.02
63 | CCATTCGGGC | 1.03
64 | AGGGCGAGCC | 0.992
65 | GGGACCGGGG | 0.982
66 | AGGAATAGCA | 1.04
67 | ATGTAGGTCT | 1.01
68 | ATAGGTGTG | 0.983
69 | AACCAAAACT | 1.07
70 | GATAACGTCA | 1.03
71 | AGAATACTGT | 1.03
72 | ATCCATGAAC | 0.983
73 | AGTTTGACGC | 0.984
74 | TTGCGAAGGA | 1.01
75 | TTGAGAGGTC | 0.933
76 | TATATAGAAC | 1.01
77 | ACCCGGCAAA | 1.33
